Among all 410,000 compounds or so, about 6,400 (1.6%) were called active. The shares of active, inactive and inconclusive entries below differ from those in the screen. The call rests on the fitted dose curve; in most records, active means well fitted inhibition curve with a large enough effect; inconclusive means small, poorly fitted or top-dose-only effect; inactive means no such curve, though single readings can be large or run the other way. Potencies of inconclusive entries are doubtful fits and often do not repeat.
molecular target: Glucagon-like peptide 1 receptor (Homo sapiens) (UniProt P43220); experiment: qHTS of GLP-1 Receptor Inverse Agonists (Inhibition Mode); settings: HEK293 GLP-1R CRE-luciferase, luminescence, 24 h; Potency: GLP-1R form is constitutively active unless noted; activity change, negative = inhibition: at 38.3 µM (top of the series) unless noted; further: nearly all actives have a fitted effect of over 55% in size
UniProt P43220, sequence (P43220 whole entry, looked up): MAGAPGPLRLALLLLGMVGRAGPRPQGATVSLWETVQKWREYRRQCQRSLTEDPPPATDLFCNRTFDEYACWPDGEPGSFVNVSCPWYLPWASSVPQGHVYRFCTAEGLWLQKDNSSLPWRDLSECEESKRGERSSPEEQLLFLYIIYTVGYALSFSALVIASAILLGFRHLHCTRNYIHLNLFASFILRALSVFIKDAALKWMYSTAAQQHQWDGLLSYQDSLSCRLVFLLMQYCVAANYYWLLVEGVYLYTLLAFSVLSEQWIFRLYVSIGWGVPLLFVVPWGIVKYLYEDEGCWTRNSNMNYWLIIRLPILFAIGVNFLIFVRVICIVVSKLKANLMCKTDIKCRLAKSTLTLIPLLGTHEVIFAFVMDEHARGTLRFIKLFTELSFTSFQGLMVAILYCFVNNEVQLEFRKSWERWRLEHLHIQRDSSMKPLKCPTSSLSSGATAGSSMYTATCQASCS
Summary of the method: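 qHTS in 1536-well format: reporter HEK293 cells expressing constitutive GLP-1R activity in DMEM + 10% Nu serum, 24 hr with compounds at 37 deg C, luminescence read after 12 min with detection reagent.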
On the % scale 0 is the no-effect control and ±100 the full control effect; potency means the concentration at half of the fitted maximal effect; tags describe the fitted curve by direction and shape.

Structure (SMILES) | Potency | activity change, negative = inhibition
O=C(c1ccccc1F)c1cn(Cc2ccc(F)cc2)c2ccccc12 | inconclusive: 7.94 µM [inhibitor, partial curve, poor fit] | –
O=C1NC(=O)C(Cc2ccccc2)(Cc2ccccc2)C(=O)N1Cc1ccccc1 | inconclusive: 11.2 µM [inhibitor, single point] | –
Cn1cc(C(=O)OCC(=O)N2CCCCC2)c2ccccc21 | – | inactive: 13.4%
COc1ccc(OC)c(NP(=O)(Oc2ccccc2)Oc2ccccc2)c1 | inconclusive: 7.08 µM [inhibitor, partial curve, poor fit] | –
CN(C)[C@@H]1C(=O)C(C(N)=O)=C(O)[C@@]2(O)C(=O)C3=C(O)c4c(O)cccc4[C@@](C)(O)C3[C@H](O)C12 (some centres not stated) | inactive | –
CCCCOC(=O)COc1cc(C)cc2oc(=O)c3c(c12)CCC3 | inconclusive: 0.891 µM [inhibitor, full curve, poor fit] | –
Cc1cccc(OP(=O)(NCc2ccccc2)Oc2cccc(C)c2)c1 | inconclusive: 7.94 µM [inhibitor, single point] | –
Cc1ccc2c(C)c3ccc4ccccc4c3c[n+]2c1 | inconclusive: 28.2 µM [inhibitor, single point] | –
COc1ccc(-n2nc(C(=O)NCC(=O)N3CCC4(CC3)OCCO4)c3ccccc3c2=O)c(OC)c1 | – | inactive: -5.56%
c1ccc(C(c2ccccc2)N2CCN(c3ccc4ccccc4n3)CC2)cc1 | inconclusive: 3.16 µM [inhibitor, full curve, poor fit] | –
CNCC[C@H](Oc1cccc2ccccc12)c1cccs1 | active: 11.2 µM [setting not given] | –
O=C(c1ccc2c(c1)OCO2)C1CCCN(CC2CCCCC2)C1 (configuration not stated) | – | inactive: 12.9%
COc1ccc(C(CNC(=O)CCc2ccsc2)N(C)C)cc1 (configuration not stated) | – | inactive: -19.1%
COc1cc(N2C(=O)CC(=O)NC2=O)cc(OC)c1OC | – | inactive: 8%
Cc1cc(Cl)ccc1C(=O)C1CCCN(C2CCSCC2)C1 (configuration not stated) | inconclusive: 8.91 µM [inhibitor, partial curve, poor fit] | –
Cc1ccc(-c2nnc(Nc3ccc(Br)cc3)c3ccccc23)cc1S(=O)(=O)NCc1nc2ccccc2[nH]1 | inconclusive: 28.2 µM [inhibitor, single point] | –
CO[C@@H]1C=CC23c4cc5c(cc4CO[C@]2(O)CN(C)[C@H]3C1)OCO5 (some centres not stated) | inconclusive: 28.2 µM [inhibitor, single point] | –
CS(=O)(=O)c1ccc(C2=C(CNC(=O)c3cccs3)[C@H]3CC[C@@H](C2)N3Cc2ccco2)cc1 | – | inactive: 3.54%
Cc1ccccc1S(=O)(=O)N(C)C[C@@H]1OCc2ccccc2-c2c(n(C)c3ccccc23)C(=O)N([C@H](C)CO)C[C@@H]1C | inconclusive: 10 µM [inhibitor, partial curve, poor fit] | –
CCCCOc1ccc(CCN)cc1Cl | – | inactive: 0.506%
CCCOP(=O)(c1ccc(N(C)C)cc1)C(O)c1ccc(Cl)cc1Cl (configuration not stated) | inconclusive: 10 µM [inhibitor, partial curve, poor fit] | –

Structure (SMILES) | Potency | activity change, negative = inhibition
Cc1ccc(Cn2nc(C)c(C=O)c2Cl)cc1 | inconclusive: 5.62 µM [inhibitor, full curve, poor fit] | –
NC1CCc2cc(O)c(O)cc2C1 (configuration not stated) | – | inactive: 9.66%
C[C@@H]1CN([C@H](C)CO)C(=O)c2cc(/C=C/c3ccccc3)cnc2O[C@H]1CN(C)C(=O)NC1CCCCC1 | inconclusive: 28.2 µM [inhibitor, single point] | –
CCCCN1C(=O)NC(=O)/C(=C/c2cnc(SC)nc2)C1=O | – | inactive: -0.65%
CCOC(=O)CC(SP1(=S)OCC2(CC=CCC2)CO1)C(=O)OCC (configuration not stated) | inconclusive: 8.91 µM [inhibitor, partial curve, poor fit] | –
Cc1ccc2c(c1)C1CN(C)CCC1N2C(=O)/C=C/c1ccc2c(c1)OCO2 (configuration not stated) | inconclusive: 10 µM [inhibitor, partial curve, poor fit] | –
CN(C)CCC=C1c2ccccc2CCc2ccccc21 | inconclusive: 22.4 µM [inhibitor, single point] | –
CCOC(=O)c1cc(C(O)(C(=O)OC)C(F)(F)F)c(/N=C/N(C)C)o1 (configuration not stated) | – | inactive: 21.5%
O=S(=O)(c1ccccc1C(F)(F)F)N1CCN(c2ncnc3sccc23)CC1 | inconclusive: 11.2 µM [inhibitor, single point] | –
CCNc1cc(N2CCN(C)CC2)ccc1[N+](=O)[O-] | – | inactive: 10%
O=C1CN=C(c2ccccc2Cl)c2cc(Cl)ccc2N1Cc1cccc(Cl)c1 | inconclusive: 10 µM [inhibitor, partial curve, poor fit] | –
COC(=O)C1=C(c2ccc(F)cc2F)C[C@@H]2CC[C@H]1N2C(=O)NCc1ccc(F)cc1 | inconclusive: 10 µM [inhibitor, partial curve, poor fit] | –
CCc1ccc(CN2CCCC(C(=O)c3sccc3C)C2)o1 (configuration not stated) | inconclusive: 22.4 µM [inhibitor, single point] | –
CC(=O)OC(C)(C)/C=C/C(=O)C(C)(O)C1[C@H](O)C[C@@]2(C)C3CC=C4C(CC[C@@H](O)C4(C)C)[C@]3(CO)C(=O)C[C@]12C (some centres not stated) | – | inconclusive: -84.1% [inhibitor] [at 38.3 µM, GLP-1R form is constitutively active]
CC(CNC(=O)c1ccc(CSc2nc3ccncc3n2Cc2ccc(F)cc2)cc1)c1ccccc1 (configuration not stated) | inconclusive: 17.8 µM [inhibitor, partial curve, poor fit] | –
CN1CCN(C(=O)COc2ccc3ccccc3c2)CC1 | – | inactive: 14.2%
CCN(CC)CCNC(=O)c1c(O)c2ccccc2n(Cc2ccccc2)c1=O | inconclusive: 5.62 µM [inhibitor, full curve, poor fit] | –
O=C(CCCN1CCC(n2c(=O)[nH]c3ccccc32)CC1)c1ccc(F)cc1 | inconclusive: 10 µM [inhibitor, single point] | –
CC(=O)Nc1ccccc1C(=O)OCc1ccc(C(=O)c2ccccc2)cc1 | inconclusive: 3.98 µM [inhibitor, partial curve, poor fit] | –
COc1cccc(C(c2nnnn2-c2ccc3c(c2)OCCO3)N2CCC3(CC2)C(=O)NCN3c2ccccc2)c1OC (configuration not stated) | inconclusive: 31.6 µM [inhibitor, single point] | –
CCCC[C@H](CN(N=O)[C@@H](Cc1ccccc1)CN(C)N=O)N(CCc1ccccc1)N=O | inconclusive: 28.2 µM [inhibitor, single point] | –

Structure (SMILES) | Potency | activity change, negative = inhibition
C#CC1(OC(=O)c2ccccc2)CC(C)N(C)CC1C (configuration not stated) | inconclusive: 11.2 µM [inhibitor, partial curve, poor fit] | –
CCN1C(=O)C(=Cc2ccc(C)s2)C(=O)N(CC)C1=S | inconclusive: 28.2 µM [inhibitor, single point] | –
CCCCn1c(O)c(C(C)=Nc2ccc(OCC)cc2)c(=O)[nH]c1=O | inconclusive: 12.6 µM [inhibitor, single point] | –
OC1(c2ccccc2)CCNC2CCCCC21 (configuration not stated) | inconclusive: 28.2 µM [inhibitor, single point] | –
CC(C)c1ccc2c(c1)C(N1CCNCC1)Cc1ccc(F)cc1S2 (configuration not stated) | inconclusive: 2.24 µM [inhibitor, partial curve, poor fit] | –
Cc1ccc(C(=O)c2cc(Br)ccc2N)cc1 | inconclusive: 28.2 µM [inhibitor, single point] | –
N#CC(C#N)=NNc1ccc(-n2ccc(C(F)(F)F)n2)cc1 | inconclusive: 1.12 µM [inhibitor, full curve, poor fit] | –
O=C(NCc1ccc(Cl)cc1)C1CCCN(C(=O)c2cnn(-c3ccc(F)cc3)c2-n2cccc2)C1 (configuration not stated) | inconclusive: 10 µM [inhibitor, partial curve, poor fit] | –
CC(=O)C1C(N2CC2)CC2C3CC=C4CC(O)CCC4(C)C3CCC21C (configuration not stated) | inconclusive: 22.4 µM [inhibitor, single point] | –
O=C(COc1ccccc1)c1cn(Cc2ccccc2)c2ccccc12 | inconclusive: 11.2 µM [inhibitor, partial curve, poor fit] | –
O=P(O)(O)CN1CCNCCN(CP(=O)(O)O)CCNCC1 | inconclusive: 28.2 µM [inhibitor, single point] | –
COC(=O)[C@@H](Cc1ccccc1)N(Cc1ccccc1)S(=O)(=O)N(Cc1ccccc1)[C@H](Cc1ccccc1)C(=O)OC | inconclusive: 11.2 µM [inhibitor, single point] | –
NC(N)=N/N=C/c1cn(-c2ccccc2)nc1-c1cccs1 | inconclusive: 28.2 µM [inhibitor, single point] | –
COC(=O)C1=C(c2ccc(OCc3ccccc3)cc2)C[C@@H]2CC[C@H]1N2C(=O)NCc1cccc(C(F)(F)F)c1 | inconclusive: 10 µM [inhibitor, partial curve, poor fit] | –
COc1cccc(CC(=O)N(C)C2CCCN(Cc3ccccc3F)C2)c1 (configuration not stated) | inconclusive: 11.2 µM [inhibitor, partial curve, poor fit] | –
CN(C(=O)Oc1cccc2cccnc12)c1ccccc1 | inconclusive: 0.501 µM [inhibitor, full curve, poor fit] | –
CCOc1c(P(=S)(N(C)C)N(C)C)c(C)nn1-c1ccccc1 | inconclusive: 14.1 µM [inhibitor, partial curve, poor fit] | –
COc1ccc2[nH]c(C)c(CCNCc3cccnc3)c2c1 | – | inactive: -0.717%
CCOc1c(Cl)cc(CNCCc2c[nH]c3ccccc23)cc1OC | inconclusive: 14.1 µM [inhibitor, partial curve, poor fit] | –
O=C1NC(=O)N(Cc2ccccc2)C(=O)/C1=C\C=C\c1ccco1 | inconclusive: 28.2 µM [inhibitor, single point] | –

— PubChem BioAssay AID624417 (National Center for Advancing Translational Sciences (NCATS), 2012)
